Read-out in experiment [1]: Low-density lipoprotein receptor (LDLR), LDLR (gene 3949)
The experiment in a line: BSK_CASM3C_LDLR: BioMAP Diversity Plus: CASM3C Assay for Low-density lipoprotein receptor (LDLR) Biomarker Activity (AID 2283045).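 Also: LDLR protein level on the cell surface quantified by ELISA.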 The conditions noted are these: actives raise or lower the signal; primary human coronary artery smooth muscle cells.

Read-out in experiment [2]: Interleukin-8 (IL8), CXCL8 (gene 3576)
The experiment can be described thus: BSK_LPS_IL8: BioMAP Diversity Plus: LPS Assay for Interleukin-8 (IL8) Biomarker Activity (AID 2283078). The note with it: actives raise or lower the signal; primary human HUVEC with PBMC. Summed up:
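Readout is IL-8 by ELISA, taken 24 h after compounds were added to LPS-stimulated endothelial/PBMC co-cultures. Both increases and decreases relative to DMSO control were scored through bidirectional fitting.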

Read-out in experiment [3]: Monocyte Chemoattractant Protein-1 (MCP1), CCL2 (gene 6347)
The experiment in a line: BSK_LPS_MCP1: BioMAP Diversity Plus: LPS Assay for Monocyte Chemoattractant Protein-1 (MCP1) Biomarker Activity (AID 2283081).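 Also: secreted MCP-1 protein quantified by ELISA in culture supernatant.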 The conditions noted are these: actives raise or lower the signal; primary human HUVEC with PBMC. A digest of the protocol: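 Human endothelial–PBMC co-cultures were dosed with chemical, then LPS-driven MCP-1 levels were quantified by ELISA at 24 h. Activity in either direction was fitted versus DMSO negative control.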

The target in experiment [4] is Estrogen receptor (Homo sapiens) (UniProt P03372). The experiment in a line: OT_ER_ERaERa_1440: Odyssey Thera (OT) 24-hour HEK293T Protein-Complementation Assay for Estrogen Receptor-alpha/-alpha Homodimer (AID 2283349; active = hit-call score of the fitted dose curve at least 0.9, where 1 is the maximum;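 also: hits raise fluorescence above DMSO for agonists and antagonists alike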). A digest of the protocol:
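HEK293T, stable ERα LBD (aa 310-547) homodimer PCA; 24 h compound exposure; mean fluorescence intensity (nuclear for agonists, nuclear plus cytoplasmic for antagonists) vs vehicle; positive fitting direction, DMSO baseline.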

Experiment [5] has the same target. The experiment in a line: OT_ER_ERaERa_0480: Odyssey Thera (OT) 8-hour HEK293T Protein-Complementation Assay for Estrogen Receptor-alpha/-alpha Homodimer (AID 2283351; active = hit-call score of the fitted dose curve at least 0.9, where 1 is the maximum). A digest of the protocol: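 Measures ERα LBD (aa 310-547) homodimer complementation in stably transfected HEK293T at 8 h post-dose, with fluorescence intensity quantified on a laser scanning cytometer relative to DMSO controls.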

Read-out in experiment [6]: ATP-citrate lyase (ACLY), ACLY (gene 47)
The experiment in a line: LTEA_HepaRG_ACLY: Life Technologies and Expression Analysis (LTEA) Assay for ATP-citrate lyase (ACLY) using HepaRG (AID 2283466). The note with it: actives raise or lower the signal; mRNA level, 48 h. Summed up: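 ACLY mRNA quantified by qRT-PCR on Fluidigm arrays against three housekeeping genes, after 48 h chemical treatment of HepaRG cells (top concentration 100 uM, half-log steps, 0.5% DMSO vehicle). Up- or down-regulation fitted relative to DMSO.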

Experiment [7] addresses Nuclear receptor subfamily 1 group I member 2 (Mus musculus) (UniProt O54915). The experiment in a line: ATG_mPXR_XSP2: Attagene TRANS-FACTORIAL Multi-Species (XSP1) HepG2 Assay for mouse Pregnane X Receptor (PXR) (AID 2283831; active = hit-call score of the fitted dose curve at least 0.9, where 1 is the maximum). Summed up:
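Reporter transcripts were quantified by RT-PCR, FAM primer extension, HpaI digestion and capillary electrophoresis after 24 h of chemical exposure in transiently transfected HepG2 cells carrying chimeric receptor-GAL4 constructs; DMSO served as baseline.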

A short description of experiment [8]: VALA_TUBHUV_Antagonist_CellCount: Viability Assessment in the VALA Sciences human Umbilical Vein Endothelial Tubule Formation (TUBHUV) Antagonism Assay (AID 2284310; active = hit-call score of the fitted dose curve at least 0.9, where 1 is the maximum). Summed up:
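Read-out is imaged cell count after nuclear and CD31 staining, fitted against 0.1% DMSO vehicle. Compounds were added for 3 days, in 10 ng/ml VEGF assay medium, to HUVEC–HDF co-cultures pre-grown 3 days.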

Experiment [9] can be described thus: BSK_CASM3C_SRB: Viability Assessment in the BioMAP Diversity Plus: CASM3C Assay (AID 2283050).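 Also: cells exposed to compound for 24 h.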 The conditions noted are these: primary human coronary artery smooth muscle cells.
Experiment [10] is described as follows: CEETOX_H295R_OHPREG: CeeTox H295R High-throughput Steroidogenesis Assay for OH-Pregnenolone (OHPREG) (AID 2283434). The note with it: actives raise or lower the signal.
Experiment [11] is described as follows: CEETOX_H295R_PROG: CeeTox H295R High-throughput Steroidogenesis Assay for Progesterone (PROG) (AID 2283442). The conditions noted are these: actives raise or lower the signal. A digest of the protocol: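 Steps: seed H295R cells and let them adhere overnight; prime 48 h with 10 uM forskolin; dose with compound in DMSO at 0.1% final for 48 h; extract medium steroids with MTBE; measure progesterone by LC-MS/MS. MTT viability was run in the same wells.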

Read-out in experiment [12]: Cyclin Dependent Kinase Inhibitor 1A (CDKN1A), CDKN1A (gene 1026)
The experiment can be described thus: LTEA_HepaRG_CDKN1A: Life Technologies and Expression Analysis (LTEA) Assay for Cyclin Dependent Kinase Inhibitor 1A (CDKN1A) using HepaRG (AID 2283450). The conditions noted are these: actives raise or lower the signal; mRNA level, 48 h. Summed up: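 Read-out is CDKN1A mRNA by TaqMan qRT-PCR, normalized to three housekeeping genes and fitted in both directions against the DMSO baseline. Human HepaRG cells were treated 48 h with test chemicals up to 100 uM in half-log steps, 0.5% DMSO.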

Read-out in experiment [13]: growth arrest and DNA damage 45 (GADD45G), GADD45G (gene 10912)
The experiment can be described thus: LTEA_HepaRG_GADD45G: Life Technologies and Expression Analysis (LTEA) Assay for growth arrest and DNA damage 45 (GADD45G) using HepaRG (AID 2283499). The conditions noted are these: actives raise or lower the signal; mRNA level, 48 h. A digest of the protocol: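 Gain or loss of GADD45G mRNA, quantified by TaqMan qRT-PCR against three housekeeping genes, is fitted in both directions relative to 0.5% DMSO. Human HepaRG cultures receive test chemical for 48 h at up to 100 uM.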

Read-out in experiment [14]: JUN Transcription Factor, JUN (gene 3725)
The experiment can be described thus: LTEA_HepaRG_JUN: Life Technologies and Expression Analysis (LTEA) Assay for JUN Transcription Factor using HepaRG (AID 2283513). The note with it: actives raise or lower the signal; mRNA level, 48 h. Summed up:
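Gene-expression endpoint: JUN mRNA (qRT-PCR, normalized to three reference genes) in HepaRG cultures treated 48 h with chemicals, duplicate wells, 100 uM maximum with half-log dilutions; bidirectional fitting relative to 0.5% DMSO.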

Read-out in the next experiment: MYC, MYC (gene 4609)
The experiment can be described thus: LTEA_HepaRG_MYC: Life Technologies and Expression Analysis (LTEA) Assay for MYC using HepaRG (AID 2283518). The note with it: actives raise or lower the signal; mRNA level, 48 h. Summed up:
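HepaRG, ~100,000 cells/well, collagen I; 48 h plating; serum-free induction medium; 48 h dosing, duplicate, 100 uM top, half-log, 0.5% DMSO; total RNA → qRT-PCR MYC; gain/loss fit vs DMSO.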

Read-out in experiment [15]: Plasminogen activator inhibitor-1 (PAI1), SERPINE1 (gene 5054)
The experiment can be described thus: BSK_hDFCGF_PAI1: BioMAP Diversity Plus: hDFCGF Assay for Plasminogen activator inhibitor-1 (PAI1) Biomarker Activity (AID 2283066). The conditions noted are these: actives raise or lower the signal; primary human foreskin fibroblasts. Summed up:
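Human skin fibroblast cultures receive chemical for 24 h before PAI-1 is measured by ELISA; signal changes are fitted bidirectionally against DMSO-treated wells.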

Experiment [16] in a line: BSK_CASM3C_Proliferation: Cell Proliferation Assessment in the BioMAP Diversity Plus: CASM3C Assay (AID 2283047).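 Also: sulforhodamine B total protein stain as relative cell number at 560 nm; sub-confluent cells exposed 48 h before staining; fitted both ways against DMSO so gain or loss of cell number.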 The conditions noted are these: primary human coronary artery smooth muscle cells.
Experiment [17] can be described thus: BSK_hDFCGF_Proliferation: Cell Proliferation Assessment in the BioMAP Diversity Plus: hDFCGF Assay (AID 2283059).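 Also: curves fitted for both rise and fall of signal versus DMSO baseline.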 The conditions noted are these: primary human foreskin fibroblasts. Summed up: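 Sub-confluent human foreskin fibroblast cultures receive test chemical […]. Relative cell number is quantified by sulforhodamine B staining (0.1%, after 10% TCA fixation) at 560 nm, with bidirectional fitting referenced to DMSO.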

Read-out in the next experiment: CD38, CD38 (gene 952)
The experiment in a line: BSK_SAg_CD38: BioMAP Diversity Plus: SAg Assay for CD38 Biomarker Activity (AID 2283087). The note with it: actives raise or lower the signal; primary human HUVEC with PBMC. A digest of the protocol:
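Measures CD38 on a human endothelial/PBMC co-culture driven by SEB and TSST-1, 24 h after compound exposure, using ELISA with fluorescence detection; DMSO defines baseline for bidirectional curve fitting.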

Experiment [18] can be described thus: BSK_SAg_SRB: Viability Assessment in the BioMAP Diversity Plus: SAg Assay (AID 2283096).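 Also: cells read one day after compound addition; hits may be either gain or loss of signal compared with DMSO.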 The note with it: primary human HUVEC with PBMC. A digest of the protocol:
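SRB absorbance at 560 nm served as the viability read-out. Cells (HUVEC plus peripheral blood mononuclear cells) were TCA-fixed and stained 24 h post-dosing; activity fitted in both directions against DMSO controls.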

The nature of experiment [19]: CCTE_Shafer_MEA_acute_burst_percentage_std: CCTE's Neural Acute Assay for Standard Deviation of Burst Percentage, Shafer Lab (AID 2284018).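 Also: fitted in the negative direction so actives lower burst percentage SD.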 A digest of the protocol: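 Value is percent change from baseline in the across-electrode SD of spikes-in-bursts percentage, wells with >/= 10 active electrodes. Acute 40-min exposure to 0.03-40 uM on DIV 13 or 15 rat cortical cultures, recorded at 37 C after 40-min baseline.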

Read-out in experiment [20]: Intercellular Adhesion Molecule 1 (ICAM1), ICAM1 (gene 3383)
The experiment in a line: BSK_BE3C_ICAM1: BioMAP Diversity Plus: BE3C Assay for Intercellular Adhesion Molecule 1 (ICAM1) Biomarker Activity (AID 2284278). The conditions noted are these: primary human bronchial epithelial cells. A digest of the protocol: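 hu bronchial epithelial primary cells, 24 h cpd exposure, ICAM-1 ELISA; gain-of-signal fit vs DMSO baseline.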

Read-out in experiment [21]: Matrix Metallopeptidase 1 (MMP1), MMP1 (gene 4312)
The experiment in a line: BSK_hDFCGF_MMP1: BioMAP Diversity Plus: hDFCGF Assay for Matrix Metallopeptidase 1 (MMP1) Biomarker Activity (AID 2283064). The note with it: actives raise or lower the signal; primary human foreskin fibroblasts. A digest of the protocol: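 MMP1 levels quantified by ELISA 24 h after dosing human dermal fibroblast cultures, with parallel SRB total-protein staining for overt cytotoxicity. Data fitted in both directions against DMSO baseline.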

Read-out in experiment [22]: Lipoprotein lipase (LPL), LPL (gene 4023)
The experiment in a line: LTEA_HepaRG_LPL: Life Technologies and Expression Analysis (LTEA) Assay for Lipoprotein lipase (LPL) using HepaRG (AID 2283515). The conditions noted are these: actives raise or lower the signal; mRNA level, 48 h. Summed up:
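LPL transcript levels quantified by TaqMan qRT-PCR against three housekeeping genes after 48 h chemical treatment of HepaRG cells. Eight-point half-log series from 100 uM in 0.5% DMSO, tested in duplicate; bidirectional fitting versus vehicle.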

The target of experiment [23] is Cellular tumor antigen p53 (Homo sapiens) (UniProt P04637). The experiment in a line: TOX21_p53_BLA_p5_ratio: Tox21 HCT-116 p53 Agonism Beta-lactamase Assay, Ratio, Phase 5 (AID 2283599; active = hit-call score of the fitted dose curve at least 0.9, where 1 is the maximum). Summed up: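 Beta-lactamase reporter ratio (blue 460 nm over green 530 nm, 405 nm excitation) after 2 h CCF4-AM loading, in HCT-116 cells exposed 16 h at 37 C to compounds pinned at 217-fold dilution. Increases relative to DMSO baseline scored.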
Chain of UniProt P04637 (P04637 whole entry, looked up): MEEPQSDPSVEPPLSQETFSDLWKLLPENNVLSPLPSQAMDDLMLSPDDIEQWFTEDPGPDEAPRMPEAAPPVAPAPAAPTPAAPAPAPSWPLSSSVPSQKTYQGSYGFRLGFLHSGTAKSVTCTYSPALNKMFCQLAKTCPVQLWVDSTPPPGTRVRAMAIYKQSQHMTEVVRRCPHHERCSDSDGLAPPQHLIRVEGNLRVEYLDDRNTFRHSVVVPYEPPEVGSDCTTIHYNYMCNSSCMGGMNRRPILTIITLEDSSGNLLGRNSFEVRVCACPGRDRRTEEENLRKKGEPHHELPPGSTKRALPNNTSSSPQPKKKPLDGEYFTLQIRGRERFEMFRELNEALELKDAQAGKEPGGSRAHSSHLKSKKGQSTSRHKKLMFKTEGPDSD

Read-out in experiment [24]: Phosphatase and tensin (PTEN), PTEN (gene 5728)
The experiment can be described thus: LTEA_HepaRG_PTEN: Life Technologies and Expression Analysis (LTEA) Assay for Phosphatase and tensin (PTEN) using HepaRG (AID 2283523). The note with it: actives raise or lower the signal; mRNA level, 48 h. Summed up: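 Read-out: TaqMan qRT-PCR of PTEN transcript, normalized to three housekeeping genes, fitted in both directions against 0.5% DMSO. Differentiated human HepaRG cultures received chemicals for 48 h, eight-point half-log series topping at 100 uM.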

Experiment [25] is described as follows: CCTE_Harrill_HTTr_CellCount_MCF7: CCTE's Cell Proliferation Assessment for the High-Throughput Transcriptomics (HTTr) Platform, Harrill Lab (AID 2284012; active = hit-call score of the fitted dose curve at least 0.9, where 1 is the maximum;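 also: count of Hoechst-stained nuclei per well by high-content imaging in MCF-7 cells; cells exposed to compound for six hours; intended direction is loss of nuclei count meaning fewer cells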). Summed up:
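For this full-screen endpoint, MCF-7 cultures received eight compound dilutions for six hours. Well nuclei counts from Hoechst imaging were analyzed relative to DMSO.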

For some of these results: Most of the hits are listed elsewhere, so they are rarer here than in the full data. Inconclusive results are not listed. This is a selection; strong and weak results do not stand in their true shares. Some compounds were tested as several samples or in several runs, with calls that do not always agree. The source made the active and inactive calls. The calls were made as follows, unless noted: active = hit-call score of the fitted dose curve at least 0.9, where 1 is the maximum; inactive = score below 0.9.

Chain of UniProt P03372 (P03372 whole entry, looked up, the tested form may be a part): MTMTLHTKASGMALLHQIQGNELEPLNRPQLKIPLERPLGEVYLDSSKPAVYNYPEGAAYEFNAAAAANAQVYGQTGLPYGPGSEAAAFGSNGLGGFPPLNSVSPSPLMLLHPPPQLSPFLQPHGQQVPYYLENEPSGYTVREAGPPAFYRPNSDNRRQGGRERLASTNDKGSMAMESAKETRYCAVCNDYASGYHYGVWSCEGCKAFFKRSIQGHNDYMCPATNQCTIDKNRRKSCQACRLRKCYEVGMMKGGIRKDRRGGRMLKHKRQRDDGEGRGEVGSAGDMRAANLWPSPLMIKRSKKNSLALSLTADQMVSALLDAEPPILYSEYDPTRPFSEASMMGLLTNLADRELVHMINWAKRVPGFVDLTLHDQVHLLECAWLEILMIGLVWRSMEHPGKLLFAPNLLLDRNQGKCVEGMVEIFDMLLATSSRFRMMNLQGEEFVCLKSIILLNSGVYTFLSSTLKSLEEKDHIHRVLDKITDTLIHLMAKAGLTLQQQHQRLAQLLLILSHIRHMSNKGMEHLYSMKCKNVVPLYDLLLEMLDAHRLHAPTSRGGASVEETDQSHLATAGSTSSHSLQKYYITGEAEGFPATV

The AC50 is the concentration at which the activity in the assay is half-maximal. With `CC(C)CCCCCCc1ccc(O)cc1`, the AC50 in experiment [1] was active: 33.3 µM; in [2], active: 11.7 µM; in experiment [3], active: 12 µM; in experiment [4], active: 11.9 µM; in experiment [5] it was active: 11.9 µM. The call in experiment [6], in experiment [7] and in experiment [8] was inactive.

For `C[C@]12C=CC(=O)C=C1CC[C@@H]1[C@@H]2C(=O)C[C@@]2(C)[C@H]1CC[C@]2(O)C(=O)CO`, the result in [9], in experiment [10], in [11], in experiment [12], in experiment [13] and in [14] was inactive. For the same compound, the outcome in the experiment with MYC, MYC (gene 4609) was inactive.

Take `NCCOCCOCCN`: the outcome in experiment [15] was inactive.

Consider `Nc1ccc(N)c(Cl)c1`, for which the AC50 was active: 4.12 µM in experiment [16]; active: 8.34 µM in [17]; active: 29.8 µM in the experiment with CD38, CD38 (gene 952); active: 30.6 µM in experiment [18]; active: 14.4 µM in [20]. Also, in experiment [19], the compound was classed as inactive.

In the case of `NNC(=O)c1ccncc1`, the outcome in experiment [21], in experiment [22] and in experiment [23] was inactive.

Regarding `COc1ccc(OC(F)(F)F)cc1CN[C@H]1CCCN[C@H]1c1ccccc1`, the concentration at half-maximal activity (AC50) in experiment [17] is active: 19.7 µM; in experiment [24] it was active: 80.9 µM. The result in experiment [25] was inactive.

Source of the values: PubChem BioAssay (EPA / NIEHS).
